Measured values as given in ChEMBL document CHEMBL1201862, “PubChem BioAssay data set” (2004).
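Test compounds were applied to cells in 96-well plates for 48 hours at 5 doses. Here, GI50 denotes the concentration required for 50% inhibition of growth.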 The source made the active and inactive calls. Cut-off read from the data, not from the text of the source: active = GI50 up to about 1.1 µM and inactive = higher.

System: NCI-H322M
Experiment: NCI-60 cell line screen, 48 h

| Structure (SMILES) | GI50 |
| --- | --- |
| C/C=C/C=C/[C@H]1Cc2cc(O)cc(O)c2O1 | inactive: > 100 µM |
| C1CNCCNCCN1 | inactive: > 100 µM |
| Cc1ccc(S(=O)(=O)N/N=C2/C(=O)Nc3c(Cl)cc(Cl)cc32)cc1 | inactive: 74.6 µM |
| COC[C@@H]1[C@H]2OC(C)(C)O[C@H]2C(=O)N1C(=O)c1ccc(OC)cc1 | inactive: > 100 µM |
| O=C1NC(=O)C(C(=O)C(=O)Nc2cccc(C(F)(F)F)c2)C(=O)N1 | inactive: > 100 µM |
| COc1cc2cc(C(=O)N3CC(CCl)c4ccc([N+](C)(C)Cc5ccccc5[N+](=O)[O-])cc43)[nH]c2c(OC)c1OC (stereo unspecified) | inactive: 2.9 µM |
| CN(C)CC/C(=N\Nc1ccc(Cl)cc1Cl)c1ccccc1 | inactive: 27 µM |
| S=c1sc2c(s1)SCCCCSCCCCSc1sc(=S)sc1SCCCCSCCCCS2 | inactive: > 100 µM |
| C/C=C(/CCCCNCCCC)[Si](C)(C)C | inactive: 14.4 µM |
| CNC1(C(=O)O)CC1 | inactive: > 100 µM |
| c1ccc(Cc2nc(Cc3n[nH]c(Cc4ccccc4)n3)n[nH]2)cc1 | inactive: > 100 µM |
| CCC(C)COC(=O)c1ccc(/N=C\c2ccc(/C=N/c3ccc(C(=O)OCC(C)CC)cc3)cc2)cc1 (stereo unspecified) | inactive: > 100 µM |
| CC(C)C1N2CCCCC2[C@@H]2c3[nH]c4ccccc4c3CCN12 (stereo partly specified) | inactive: > 100 µM |
| NC(=O)/N=C1\NCCC(=O)N1CCc1c[nH]c2ccccc12 | inactive: 23.2 µM |
| NC(CCC(=O)O)C(=O)NC(Cc1ccc(N(CCCl)CCCl)cc1)C(=O)O (stereo unspecified) | inactive: > 100 µM |
| CC[C@]12C=CCN3CC[C@@]4(c5cc(N=O)c(OC)cc5N(C)[C@H]4[C@@](O)(C(=O)OC)[C@@H]1OC(C)=O)[C@@H]32 | inactive: > 100 µM |
| COc1ccc2nc3cccc([N+](=O)[O-])c3c(NCCC(=O)O)c2c1 | inactive: > 10 µM |
| CCOC(=O)C(C(C)=O)C1CC=CC1 (stereo unspecified) | inactive: > 100 µM |

| Structure (SMILES) | GI50 |
| --- | --- |
| CCOC(=O)C(C)(C)C(O)C(C)C (stereo unspecified) | inactive: > 100 µM |
| C/C=C(\C)C(=O)OC1C(C)=C2C(C1OC(=O)CCCC)C(C)(OC(C)=O)CC(OC(=O)CCCC)C1(O)C2OC(=O)C1(C)O (stereo unspecified) | active: 0.566 µM |
| [O-][S+](Cc1ccccc1)c1nc2ccccc2nc1-c1cccs1 (stereo unspecified) | inactive: 15.6 µM |
| NNC(=O)c1nn[nH]c1SSc1[nH]nnc1C(=O)NN | inactive: > 100 µM |
| CCC/C(Cl)=N/OC(NC(=O)OCC)(C(F)(F)F)C(F)(F)F | inactive: > 100 µM |
| C=C(C)[C@H]1C=C[C@@H](OC(C)=O)[C@@]2(COC(C)=O)[C@H](OC(=O)CCC)[C@H]3[C@@H](OC(C)=O)[C@@H](C)C[C@]3(O)C(=O)[C@@](C)(OC(C)=O)[C@H]12 | inactive: 84.7 µM |
| CCN(CC)CC(O)C1CCC(c2ccccc2)CC1 (stereo unspecified) | inactive: 42.1 µM |
| O=C1CCC2c3ccccc3NCN12 (stereo unspecified) | inactive: > 100 µM |
| O=C1NC(=O)[C@@H](OCC2CCCCC2)[C@@H]2OCC3OC(C(O)C3O)C12 (stereo partly specified) | inactive: > 100 µM |
| O=c1[nH]c2c(c(=O)[nH]1)SC(c1ccccc1)C2 (stereo unspecified) | inactive: 49.3 µM |
| Cc1oc2c(cc(O)c3cc(O)ccc32)c2cccc1-2 | inactive: > 100 µM |
| O=C(c1ccccc1)c1c(CNCc2ccccc2)n(C(=O)c2ccccc2)c2ccccc12 | inactive: 53.6 µM |
| CC(C)N(C(=O)C12C3C4C1(I)C1C2C3(I)C41C(=O)N(C(C)C)C(C)C)C(C)C (stereo unspecified) | inactive: > 100 µM |
| Cc1cn([C@H]2C[C@](C)(CO)N(C)O2)c(=O)[nH]c1=O | inactive: > 100 µM |
| C(=N\Nc1nnc(-c2nnc(N/N=C/c3ccccc3)o2)o1)/c1ccccc1 | inactive: > 10 µM |
| CCO/C=C\C12CCCC1NC(c1ccccc1)(c1ccccc1)O2 (stereo unspecified) | inactive: > 100 µM |
| C=C(C)[C@@H]1CC[C@]2(C)CC[C@]3(C)[C@H](CC[C@@H]4[C@@]5(C)CC[C@H](OC(=O)c6ccccc6)C(C)(C)[C@@H]5CC[C@]43C)[C@@H]12 | inactive: > 100 µM |
| Oc1ccc([I+]c2ccccc2)cc1O | inactive: 22.4 µM |
